# Experimental data: PubChem BioAssay (NCI)
# Some structures have more than one record in an assay (separate samples or runs), and their calls can disagree.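 Growth was measured after 48 h exposure to one concentration of compound in 96-well plates. Values under 10 count as active.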 Certain results were filed several times, with different values. The other results are left out here. There may be further records. This drug was run again and again over the years, at the concentration stated with the values; each value is one run. Signs of the kind (2×) stand for listed records that agree.
# Experiments:
# SR leukemia = assay: NCI-60 one-dose screen, 48 h (100 = growth as untreated, 0 = no growth, -100 = all killed)
# RPMI-8226 leukemia = assay: as above; conditions: 0.25 µM
structure (smiles),measurement,setting,value
COc1cccc2c1C(=O)c1c(O)c3c(c(O)c1C2=O)C[C@@](O)(C(=O)CO)C[C@@H]3OC1CC(N)C(O)C(C)O1 (stereo not given in full),growth,"SR leukemia; 0.25 µM, runs of 2021","active: -3.19, 1.33, -3.52, 8.05, 7.35, 7.34, 7.2, 9.97, 7.69 (2×), 8.87, 8.31, 7.23, 6.77, 6.87, 9.95, 0.724, 6.84, 2.55, 8.48, 6.33, -0.651, 5.08, 3.43, 0.235, 5.64 (2×), 4.99, 9.8, 7.95, 8.67, 4.97, -0.92, -2.75, 9.17, 5.68, 7.17, 8.28, 3.73, 0.516, 8.69% and inactive: 11.5 (2×), 23.3, 33.2, 35.3, 16.2, 13, 14.9, 12.9, 13.5, 11.1, 10.1%"
same,growth,"SR leukemia; 0.25 µM, runs of 2022","inactive: 20, 19.4, 20.8, 14, 17.9, 12.3, 21.3, 22.5, 13.8% and active: -31.7, -26.8, 3.54, 9.63, 3.84, 4.45, 7.14, -0.211, 6.93, 3.39, 0.0618%"
same,growth,"SR leukemia; 25 µM, runs of 1991","active: -19.6, -24.5, -29.5, -20.9, -34.4, -21.3, -29.9, -37.2, -29.3% and inactive: 29.6%, 20.6%, 33.5%"
same,growth,"SR leukemia; 25 µM, runs of 1992","active: 1.59, -17, -39.6, -51.6, 5.36, -15.4, -16.9, -40.3, -8.45, -42.7, 1.19, -13.3 (2×), -10.1, -26.9, -10.2, -8.5, -0.297, 2.49, -19.8, -12.2, -46.8, -8.88, -24.5, -27.1, -43.1, -46.2, -24.3, 0.454, -25.7, -39.5, -35.3, -21.3, -45.9, -34.1, 0.152, 5.08, -12.3, 9.24, -39 (2×), -64.1, -31.3, 7.6, -21.7, -8.37, -30.2, -2.68, -0.145, -24, -0.634, -30.9, -44, 1.6, -22, -28.6, -46.6, -43.3, -20.9, -11.1, -38.4, -33.2, -100, -29.6, -2.96, -36.1, -23.2, -31.1, -9.23, -11.2, -22.4, -33.5, -35.6% and inactive: 27.6, 17.1, 11.6, 24.7, 48.8, 27.4, 25.9%"
same,growth,"SR leukemia; 25 µM, runs of 1993","active: -14, -3.21, -32.2, -36.4, -24.6, -10.5, 2.97, 8.16, -16.8, -7.76, -12.3, -29.3, -28.7 (2×), -45.1, -17.9, -11.6, -41.6, -17.1, -35.1, -55, -3.46, -50.7, -35.3, -42.8, -27, -11.9, -12.7, 3.84, -29.6, -5.23% and inactive: 16, 29.6, 14.8, 62.9, 68.1, 19.9, 17.5, 45.3%"
same,growth,"SR leukemia; 25 µM, runs of 1994","active: 0.478, -38.3, 0, 0.623, -3.33, 0.0396, -81.3, -34.6, 1.23, -13.8, 5.66, -20.9, 9.34, -14.2, -6.97, 1.45, -34.8, -10.2, 8.36, -47.2, -33.6, -13.1% and inactive: 48%"
same,growth,"SR leukemia; 25 µM, runs of 1995","active: -26.6, -38.4, -25.7, -42.2, -47.8, -14.3 (2×), -17.1, -13.4, -32.8, -30.6, -18.3, -17.3, 1.24, -36.9, -52.3, -18, -15.8, 7.61, -54.2, -40.7, 4.51, -10.1, -16, -31.1, -8.67, -61.5, -41.5, -41.9, 7.41, -59.3, -18.5, -58.6% and inactive: 13.9%, 15.5%, 12.2%"
same,growth,"SR leukemia; 25 µM, runs of 1996","active: -49.2 (2×), -39.1, -36.9, -20.6 (2×), -29.3, 6.89, -23.7, 5.41, -19.2, -45.2, -43.8, -35, -52.6, -4.34, -17.6, -47.9, -58.6, 9.83, 4.44, -35.7, -38.2, -44.3, -67.6, -56.9, -10.2, -6.59, -47.3, 1.17, -50, -6.72, -49.9, -100, -37.1% and inactive: 19.5, 14.9, 82.9, 37.1, 15.5, 45, 30.5, 76.2, 24.9%"
same,growth,"SR leukemia; 25 µM, runs of 1997","active: -9.72, -14.5, -40, -30.8, -54.9, -63.2, -40.6, 3.63, -28, 3.7, -31.8, -56.9, -35.1, 6.93, -29.5, 6.68, -42.6, 1.59, -30.5, -8.71, -15.8, -16.1% and inactive: 43.1, 24.9, 11.1, 31.6%"
same,growth,"SR leukemia; 25 µM, runs of 1998","active: -23, -25.5, -6.21, -45.3, -41.6, -65.8, 3.29, 2.61, -40.9, -6.43, -15.3, -2.6, -23.9, 4.74, 4.63, -34.9, -39.8% and inactive: 29.7%, 10.4%, 98.4%"
same,growth,"SR leukemia; 25 µM, runs of 1999","active: -12.5, -7.31, -40, -33.9, -73.7, 9%"
same,growth,"SR leukemia; 25 µM, runs of 2000","active: -77.3, 2.63, 9.28, -64.1%"
same,growth,RPMI-8226 leukemia; runs of 2006,active: -6.69% and inactive: 25.8%
same,growth,RPMI-8226 leukemia; runs of 2007,"active: 9.29, -12.1, 6.72, -8.47, -11.6 (2×), -9.45, 5.63, -7.3, -3.59, -13.4, -23.3, -1.8, -32.3, 4.24, -3.83, -22.4% and inactive: 10.4, 14.4, 38.5, 60.5, 45.2, 50.2, 33.3, 22.4, 29.4, 78.4, 13.8, 15.2, 20.2, 23.9, 17.9, 25, 31.3, 11.4, 47.9, 87.7, 37.8, 49.4, 14.8, 21.8, 37.5, 41, 30.9, 39.2%"
same,growth,RPMI-8226 leukemia; runs of 2008,"inactive: 25.2, 75.6, 35.4, 13.4, 31.3, 36.6, 69.6, 18.9, 82.4, 18.3, 17.3, 32.9, 24.5, 11.7, 16.3, 19.2, 14.5% and active: -5.07, -23.2 (2×), -23.1, -12.9, -13.5, -5.11, -26.7, -4.76, -18.1, -4.51, -24.7, -17, -17.8, 1.11, -14.3, 0.309, -9.02, -17.6, -41.5, -28.3, 4.71, 2.35, 1.33, 3.05, -14.8, -20.3, 1.23, -14.2, -4.81, -0.564, 0.514, -15.7, -20, -3.4, 1.57%"
